Where “and” joins values, the source holds several entries; their conditions need not be identical. Equal values may be shown once. Hit rate of the full screen: of about 270,000 compounds, about 620 (0.23%) were called active. Inconclusive results, whose numbers are uncertain, are shown with a selection of clear calls. The call rests on the fitted dose curve; in most records, active means well fitted inhibition curve with a large enough effect in the polarisation, with a control signal flat (not every such curve was filed as active); inconclusive means small, poorly fitted or top-dose-only effect, or effect the other way, or a change in a side signal; inactive means no such curve, though single readings can be large or run the other way; the % refers to the polarisation. Potencies of inconclusive entries are doubtful fits and often do not repeat. “Side channel” marks fits to a control or component signal instead of the main read-out.
Biological target: Menin (Homo sapiens) (UniProt O00255)
Experiment: qHTS Assay for Inhibitors Targeting the Menin-MLL Interaction in MLL Related Leukemias: Competition With Texas Red Labeled MLL-derived Mutant Peptide
Details: fluorescence polarization; series mostly up to 61.6 µM
Potency means the concentration at half of the fitted maximal effect; tags describe the fitted curve by direction and shape or compound fluorescence and quenching.

Chain of UniProt O00255 (O00255 whole entry, looked up): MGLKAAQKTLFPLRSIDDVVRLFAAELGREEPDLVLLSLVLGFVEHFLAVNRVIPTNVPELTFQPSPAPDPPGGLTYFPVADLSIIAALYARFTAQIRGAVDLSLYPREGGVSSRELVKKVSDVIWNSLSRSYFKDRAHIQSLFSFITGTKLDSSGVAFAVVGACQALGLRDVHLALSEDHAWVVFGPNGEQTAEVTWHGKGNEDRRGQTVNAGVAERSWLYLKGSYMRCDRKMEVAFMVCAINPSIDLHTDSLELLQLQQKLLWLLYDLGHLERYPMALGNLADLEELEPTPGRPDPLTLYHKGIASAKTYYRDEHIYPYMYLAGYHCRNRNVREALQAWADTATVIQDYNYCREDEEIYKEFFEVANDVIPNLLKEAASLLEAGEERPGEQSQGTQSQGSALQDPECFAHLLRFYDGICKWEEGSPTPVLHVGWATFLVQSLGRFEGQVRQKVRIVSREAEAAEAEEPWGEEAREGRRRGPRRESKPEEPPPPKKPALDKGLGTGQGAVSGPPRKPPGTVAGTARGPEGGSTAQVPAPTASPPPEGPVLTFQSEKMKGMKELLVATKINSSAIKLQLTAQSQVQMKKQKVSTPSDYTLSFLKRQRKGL

| Structure (SMILES) | Potency |
| --- | --- |
| Cc1ccc2oc(C(=O)N(Cc3ccccc3)C3CCS(=O)(=O)C3)c(C)c2c1 (stereo not given) | inconclusive: 25.1 µM [inhibitor, partial curve] |
| Cc1ccccc1OCC(O)CN1CCN(C)CC1 (stereo not given) | inactive |
| CCOC(=O)CSc1nc2cc(OCC)ccc2cc1C#N | inconclusive: 39.8 µM [inhibitor, single point] |
| Cc1ccc(NS(=O)(=O)c2cc(Br)cnc2N)c(Cl)c1 | inconclusive: 25.1 µM [quencher, side channel, partial curve] |
| CCOC(=O)c1oc2ccc(S(=O)(=O)n3nc(-c4ccccc4)cc3N)cc2c1C | inconclusive: 8.91 µM [quencher, side channel, partial curve] |
| COc1ccc(/C=N/NC(=O)c2ccc(O)cc2O)cc1CSc1ccccn1 | inconclusive: 20 µM [quencher, side channel, partial curve] |
| COC(=O)CCC(=O)OC1(C)C(=O)C=C2C=C(C3CC3)N(CCN3CCOCC3)C=C2C1=O (stereo not given) | inconclusive: 2.51 µM [inhibitor, partial curve] |
| CCCCCCCCCCCCCCCCO | inconclusive: 11.2 µM [inhibitor, partial curve] |
| C[N+](C)(C)CCNC(=O)c1cc[n+](Cc2ccccc2)c(/C=N/O)c1 | inconclusive: 44.7 µM [quencher, side channel, partial curve, poor fit] |
| Cc1cc(OCC(=O)N(C(C)C)C(C)C)ccc1Cl | inconclusive: 12.6 µM [fluorescent, side channel, partial curve] |
| CC(=O)Oc1ccc(/C=C2/SC(=S)N(Cc3ccccc3)C2=O)cc1 | inconclusive: 7.08 µM [quencher, side channel, partial curve] |
| CC(C)(C)C(CN1CCCC1)OC(=O)c1ccccc1 (stereo not given) | inconclusive: 5.01 µM [inhibitor, full curve] |
| C/C(CCC(=O)OC[C@H]1O[C@H](C#Cc2ccccc2)C=C[C@@H]1Oc1ccc(C)cc1)=N\O[C@@H](C)CN1CCCCc2nc(C)c(C)cc21 | inconclusive: 3.16 µM [fluorescent, side channel, full curve, poor fit] |
| Cc1c(Nc2scc(-c3ccccc3)[n+]2-c2ccccc2)c(=O)n(-c2ccccc2)n1C | inconclusive: 11.2 µM [fluorescent, side channel, partial curve] |
| CCCc1ccc(OCc2ccc(C(=O)Nc3cccc(C)n3)o2)c(OC)c1 | inconclusive: 14.1 µM [fluorescent, side channel, partial curve] |
| O=C1C(=O)N(c2cccc(Cl)c2)C(c2ccccc2[N+](=O)[O-])/C1=C(\O)c1ccccc1 (stereo not given) | inconclusive: 39.8 µM [quencher, single point] |
| CCOC(=O)C1CCCN(C(=O)CNS(=O)(=O)c2ccc(Br)s2)C1 (stereo not given) | inactive |
| O=C(O)CCc1ncc(C(F)(F)F)cc1Cl | inactive |
| COc1ccc(CC(=O)Nc2nc(-c3ccc(F)c(F)c3)cs2)cc1 | inconclusive: 15.8 µM [quencher, side channel, partial curve] |
| CN(CCNC(=O)CN1C(=O)CSc2ccc(S(=O)(=O)N3CCCC3)cc21)Cc1ccccc1 | inconclusive: 5.01 µM [inhibitor, full curve, poor fit] |
| COc1cccc(CN(C)C(=O)CC23CC4CC(CC(C4)C2)C3)c1OC | inconclusive: 7.94 µM [fluorescent, side channel, partial curve] |
| CCN1/C(=C/C(C)=O)Sc2ccc(OC)cc21 | inconclusive: 31.6 µM [quencher, side channel, single point] |
| CC1CN(CC(O)COc2ccc(C#N)cc2)CCN1CC(O)COc1ccc(C#N)cc1 (stereo not given) | inactive |
| NS(=O)(=O)c1ccc(NC(=O)COC(=O)c2cnccn2)cc1 | inconclusive: 39.8 µM [quencher, side channel, single point] |
| O=C(c1cccc(-n2cnnn2)c1)N1CCOCC1 | inconclusive: 39.8 µM [inhibitor, single point] |
| Cc1ccc(OCc2ccc(C(=O)Nc3nc4ccccc4n3C)o2)c([N+](=O)[O-])c1 | inconclusive: 25.1 µM [quencher, side channel, partial curve] |
| CCCCC(c1nnnn1CCOC)N1CCN(c2cccc(OC)c2)CC1 (stereo not given) | inconclusive: 7.08 µM [fluorescent, side channel, full curve, poor fit] |
| N#CC1=C(N)n2c(s/c(=C\c3cccs3)c2=O)=C(C#N)C1c1cccs1 (stereo not given) | inconclusive: 20 µM [quencher, single point] |

| Structure (SMILES) | Potency |
| --- | --- |
| Cc1nc2ccc(NC(=O)CCS(=O)(=O)c3ccc(Cl)cc3)cc2s1 | inconclusive: 35.5 µM [inhibitor, single point] |
| CSc1cccc(NC(=O)/C=C/c2ccc(Cl)cc2)c1 | inconclusive: 8.91 µM [quencher, side channel, partial curve] |
| COc1cnc(-c2ccccn2)nc1Sc1ccccc1 | inconclusive: 17.8 µM [fluorescent, side channel, partial curve] |
| CCCCOc1cccc(C(=O)Nc2ccc(NC(=O)c3cccs3)cc2)c1 | inconclusive: 11.2 µM [fluorescent, side channel, partial curve] |
| CCOC(=O)C1(S(=O)(=O)c2ccc(Cl)cc2)CCN(Cc2ccccc2)CC1 | inconclusive: 31.6 µM [fluorescent, side channel, partial curve] |
| Fc1ccc(NC(=S)Nc2ccc(F)c(Cl)c2)cc1Cl | inconclusive: 17.8 µM [quencher, side channel, single point] |
| Cc1cc(-c2ccccc2C(=O)NCc2ccccc2)on1 | inconclusive: 0.631 µM [inhibitor, full curve, poor fit] |
| COC(=O)c1cc(NC(=O)CC2SCCNC2=O)cc(C(=O)OC)c1 (stereo not given) | inconclusive: 39.8 µM [inhibitor, single point] |
| CCOC(=O)c1cnn(-c2nc(SC)nc3sc4c(c23)CCC4)c1N | inconclusive: 14.1 µM [quencher, side channel, partial curve] |
| COc1cccc(Cn2c(=O)c(-c3ccc(F)cc3)nc3cnc(N4CCOCC4)nc32)c1 | inconclusive: 3.16 µM [inhibitor, full curve, poor fit] |
| CCC1CCCCN1CCCNC(=O)c1ccc(N2CCOCC2)c(NS(=O)(=O)c2ccc(OC)cc2)c1 (stereo not given) | inconclusive: 39.8 µM [fluorescent, side channel, single point] |
| CCOC(=O)c1c(C)nc2sccn12 | inactive |
| CCOc1ccc(C(=O)NC(=S)Nc2ccc(N3CCC(C)CC3)cc2)cc1[N+](=O)[O-] | inactive |
| CC(COc1ccccc1)N1CCC(CO)(Cc2ccccc2)CC1 (stereo not given) | inconclusive: 8.91 µM [inhibitor, partial curve] |
| CN(C)c1ccc2c(c1)Sc1cc(N(C)C)ccc1N2C(=O)c1ccccc1 | inconclusive: 5.01 µM [inhibitor, partial curve] |
| CN=c1scc(-c2cccs2)n1/N=C/c1ccc(O)c(O)c1O | inconclusive: 28.2 µM [quencher, side channel, single point] |
| Oc1c(Cl)cc(Cl)cc1Sc1cc(Cl)cc(Cl)c1O | inconclusive: 20 µM [quencher, side channel, partial curve] and inconclusive: 31.6 µM [quencher, side channel, partial curve] and inconclusive: 28.2 µM [quencher, side channel, single point] |
| O=C(NN1C(=O)/C(=C/c2ccc(O)c([N+](=O)[O-])c2)SC1=S)c1ccccc1Cl | inconclusive: 28.2 µM [fluorescent, side channel, partial curve] |
| COc1cc(/C=C2/C(=N)N3C(=NC2=O)SN=C3S(=O)(=O)C(C)C)ccc1OS(=O)(=O)c1ccccc1 | inconclusive: 10 µM [quencher, partial curve] |
| COc1ccccc1C1CCN(C(=O)c2ccc(C(C)(C)C)cc2)CC1 | inconclusive: 10 µM [fluorescent, side channel, partial curve] |
| COc1ccc(OC)c(S(=O)(=O)N/N=C\c2c[nH]c3ccccc23)c1 | inconclusive: 22.4 µM [quencher, side channel, partial curve] |
| O=C1[C@H]2[C@@H](C(=O)N1c1cccc3ccccc13)C1(C(=O)c3ccccc3C1=O)N1CCC[C@@H]21 | inconclusive: 39.8 µM [quencher, side channel, single point] |
| Cc1c(C(=O)N(C)C2CCCCC2)sc2ncnc(N3CCN(c4ccccc4F)CC3)c12 | inconclusive: 8.91 µM [fluorescent, side channel, full curve] |
| CN(C)c1ccc(/C=C2\C(=O)Nc3ccccc32)cc1 | inconclusive: 31.6 µM [quencher, side channel, single point] |
| Cc1ccccc1CC1(CO)CCCN(C(=O)c2ccccc2N(C)C)C1 (stereo not given) | inconclusive: 1.41 µM [fluorescent, side channel, full curve, poor fit] |
| O=C(Nc1ccc(S(=O)(=O)N2CCCC2)cc1)c1cccs1 | inconclusive: 25.1 µM [quencher, side channel, single point] |
| CC(C)(C)NC(=O)c1ccc2c(c1)N(CC(=O)N1CCCCC1)C(=O)C(C)(C)O2 | inconclusive: 12.6 µM [inhibitor, partial curve, poor fit] |

— PubChem BioAssay AID1768 (National Center for Advancing Translational Sciences (NCATS), 2009)
